According to patent US12269859B2, “Synthetic immune receptors and methods of use thereof” (Angeles Therapeutics, Inc., priority 2016, dated 2025):

Test system: target antigen-expressing cell line
Assay: Jurkat NFAT-GFP assay, coculture with target cell lines expressing the respective target antigen (summary Table 10A)
Type: cell-based, human
Set-up: key: The signs +/−, +, 2+ etc. after the name of the cell lines indicate the relative degree of positivity on the Jurkat-NFAT-GFP assay as measured by the % GFP positive cells; +: relative degree of positivity on the Jurkat-NFAT-GFP assay as measured by the % GFP positive cells; 2+: relative degree of positivity on the Jurkat-NFAT-GFP assay as measured by the % GFP positive cells

B1: 111815-B05 (protein)
chain: MALPVTALLLPLALLLHAARPDEFVDNKFNKERYSAYYEIWQLPNLNVRQKAAFIGSLQDDPSQSANLLAEAKKLNDAQAPKLELEGKPIPNPLLGLDSTGSGEDLKNVFPPEVAVFEPSEAEISHTQKATLVCLATGFYPDHVELSWWVNGKEVHSGVCTDPQPLKEQPALNDSRYCLSSRLRVSATFWQNPRNHFRCQVQFYGLSENDEWTQDRAKPVTQIVSAEAWGRADCGFTSESYQQGVLSATILYEILLGKATLYAVLVSALVLMAMVKRKDSRGRAKRSGSGATNFSLLKQAGDVEENPGPTSMDWIWRILFLVGAATGAHSFEYAKEMRNAYWEIALLPNLTNQQKRAPIRKLYDDPSQSSELLSEAKKLNDSQTREQKLISEEDGSGIQNPDPAVYQLRDSKSSDKSVCLFTDFDSQTNVSQSKDSDVYITDKCVLDMRSMDFKSNSAVAWSNKSDFACANAFNNSIIPEDTFFPSPESSCDVKLVEKSFETDTNLNFQNLSVIGFRILLLKVAGFNLLMTLRLWSSRAKRSGSGVKQTLNFDLLKLAGDVESNPGPSRGHMTEYKPTVRLATRDDVPRAVRTLAAAFADYPATRHTVDPDRHIERVTELQELFLTRVGLDIGKVWVADDGAAVAVWTTPESVEAGAVFAEIGPRMAELSGSRLAAQQQMEGLLAPHRPKEPAWFLATVGVSPDHQGKGLGSAVVLPGVEAAERAGVPAFLETSAPRNLPFYERLGFTVTADVEVPEGPRTWCMTRKPGA
modifications: Polynucleotide encoding a Synthetic Immune Receptor (SIR)
With B1 the “NFAT-GFP ASSAY Positive Cell lines” value (coculture with LoVo cells) was “LoVo (+), OVCAR3” and the “NFAT-GFP ASSAY Positive Cell lines” value (coculture with OVCAR3 (also printed 0VCAR3) cells) was “(+)”.
